Laboratory results reported in PubChem BioAssay AID624170 (National Center for Advancing Translational Sciences (NCATS), 2012).
The whole screen tested about 410,000 compounds, of which about 850 (0.21%) were called active. Inconclusive results, whose numbers are uncertain, are shown with a selection of clear calls. The call rests on the fitted dose curve; in most records, active means well fitted inhibition curve with a large enough effect; inconclusive means small, poorly fitted or top-dose-only effect, or another doubt; inactive means no such curve, though single readings can be large or run the other way. No potency is given beside an inconclusive call; the fits are too rough.

Each molecule was assayed against Glutaminase kidney isoform, mitochondrial (Homo sapiens) (UniProt O94925) (assay: qHTS for Inhibitors of Glutaminase (GLS)). Conditions: GLS enzymatic activity, qHTS titration; series mostly up to 45.5 µM.
Excerpt: Glutaminase (GLS) catalyzes the hydrolysis of glutamine into glutamate and ammonia. It plays a critical role in glutaminolysis, which is an important energy source for proliferating cells. It was shown that c-Myc, an oncogenic transcription factor known to regulate microRNAs and to stimulate cell proliferation, increases glutamine metabolism by stimulating the expression of GLS via direct suppression of miR23a and miR23b.
GLS is also thought to play a pathogenic role on HAD using a human HIV-1 infected macrophage system. […] GLS inhibition limits glutamate release and provides neuroprotection against HIV-1 infected macrophages.
The overall goal of this project is to identify small molecule inhibitors of GLS through quantitative high throughput screening (qHTS) of the MLSMR. A validated potent and selective inhibitor can be used as a tool molecule to further study the pharmacology of its target as well as explore its potential therapeutic application in cancer and inflammatory neurological disorders, such as HIV1-associated dementia (HAD) and multiple sclerosis.
NIH Chemical Genomics Center [NCGC]
NIH Molecular Libraries Probe Centers Network [MLPCN]
Assay Submitter (PI): Barbara S. Slusher, Johns Hopkins University
Three 3 uL of hKGA is dispensed into black well 1536-well plates in 45 mM KH2PO4 (pH 8.2), 0.02% Tween-20. Then 23 nL of compounds are added through pin tool transfer. To this, 1 uL of 1mM L-Glutamine and 1 uL of a solution of L-Glutamateoxidase, HRP, Amplex red are added. Plate is centrifuged for 25 sec before an initial fluorescence read is obtained on the ViewLux, after 30 min of RT incubation, the final read is taken on the ViewLux.
Potency means the concentration at half of the fitted maximal effect; tags describe the fitted curve by direction and shape.

Sequence of UniProt O94925 (O94925 whole entry, looked up, canonical isoform): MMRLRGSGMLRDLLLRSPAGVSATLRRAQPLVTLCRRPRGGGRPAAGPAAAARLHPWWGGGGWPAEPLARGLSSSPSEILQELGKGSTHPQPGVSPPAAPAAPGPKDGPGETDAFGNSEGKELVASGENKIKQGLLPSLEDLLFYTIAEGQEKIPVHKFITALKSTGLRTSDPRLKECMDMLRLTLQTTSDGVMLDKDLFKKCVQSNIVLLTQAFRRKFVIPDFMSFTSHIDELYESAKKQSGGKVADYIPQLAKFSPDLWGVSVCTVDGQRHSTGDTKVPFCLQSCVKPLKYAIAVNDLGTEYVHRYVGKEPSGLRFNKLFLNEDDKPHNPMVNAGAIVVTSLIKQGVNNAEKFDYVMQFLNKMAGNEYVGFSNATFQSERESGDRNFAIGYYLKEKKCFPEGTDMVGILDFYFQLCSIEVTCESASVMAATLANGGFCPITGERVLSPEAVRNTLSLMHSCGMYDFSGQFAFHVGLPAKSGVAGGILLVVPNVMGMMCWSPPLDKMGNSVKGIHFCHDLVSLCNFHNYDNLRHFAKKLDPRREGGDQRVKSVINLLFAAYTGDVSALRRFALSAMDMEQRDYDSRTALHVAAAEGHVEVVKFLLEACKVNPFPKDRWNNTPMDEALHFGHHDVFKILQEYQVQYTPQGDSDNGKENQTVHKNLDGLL

SMILES | Potency
Cc1[nH]c2ccccc2c1C1=CC(=O)C=CC1=O | inconclusive [inhibitor, single point]
COc1ccc(C2Nc3cccc4cccc(c34)N2)cc1Br | inconclusive [inhibitor, single point]
O=C(Nc1ccc(N2CCOCC2)c(S(=O)(=O)Nc2ccccc2Cl)c1)c1ccc(F)cc1 | inactive
CN(c1ccccc1C(=O)NCc1ccco1)S(C)(=O)=O | inconclusive [inhibitor, partial curve, poor fit]
CC1(C)C(N(O)C(=O)Nc2ccc(Cl)cc2)N(c2ccc(Cl)cc2)C(=O)N1CC(=O)NN (centres undefined) | inconclusive [inhibitor, single point]
FC(F)Oc1ccc(/C=N/n2c(Cc3ccc(Br)cc3)n[nH]c2=S)cc1 | inconclusive [inhibitor, partial curve]
CCOC(=O)c1c(NC(=O)c2c(C(=O)O)cccc2[N+](=O)[O-])sc2c1CCCC2 | inconclusive [inhibitor, single point]
CCOc1ccc(-c2cc3c(=O)n(CC(=O)Nc4cc(F)ccc4C)ccn3n2)cc1 | inactive
Nc1cc(C(=O)O)ccc1Nc1ccc(F)c(F)c1 | inconclusive [inhibitor, single point]
CCCCCCCCCCC[N+](C)(C)CC/C=C1/c2ccccc2Sc2ccc(Cl)cc21 | inconclusive [inhibitor, single point]
O=C(NCCCN1CCOCC1)C(=O)N/N=C/c1ccccc1O | inactive
O=C(Nc1nc2ccccc2[nH]1)c1cccc(S(=O)(=O)N2CCOCC2)c1 | inactive
CN1CCC(N(C)C(=O)/C(C#N)=C\c2ccc(OC(F)F)cc2)CC1 | inconclusive [inhibitor, single point]
Cc1ccc(S(=O)(=O)/N=C2\C=C(Nc3ccc(O)cc3)C(=O)c3ccccc32)cc1 | inconclusive [inhibitor, single point]
CCOC(=O)C1=CCC(c2ccc(C#N)cc2)N(S(=O)(=O)c2ccc(C)cc2)C1 (centres undefined) | inconclusive [inhibitor, partial curve, poor fit]
Cc1ccccc1/C(N)=N/OC(=O)N1c2ccccc2Sc2ccccc21 | inconclusive [inhibitor, single point]
CCc1nnc(N/N=C/c2ccccc2Cl)n1N | inconclusive [inhibitor, single point]
CCC(C)NC(=O)CCc1nc2ccccc2n1-c1ccccc1 (centres undefined) | inactive
Cc1ccc(-n2c(=O)[nH]c3cc(C(=O)NCc4ccccc4)ccc3c2=O)cc1 | inconclusive [inhibitor, partial curve, poor fit]
O=C(CSc1nc2c(cnn2-c2ccccc2)c(=O)[nH]1)N1CCOCC1 | inconclusive [inhibitor, single point]
O=C(CNc1ccc(F)cc1)c1ccccc1 | inconclusive [inhibitor, single point]
Cc1ccc(C(=O)CSc2nnc(-c3ccco3)n2C)cc1 | inconclusive [inhibitor, single point]

SMILES | Potency
C/C(=N/NC(=O)C(O)(c1ccccc1)c1ccccc1)c1ccc([N+](=O)[O-])o1 | inactive
CC(=O)c1cccc(N=Cc2c(O)ccc3ccccc23)c1 | inconclusive [inhibitor, partial curve, poor fit]
CCC(=O)N1c2ccccc2CC1C(=O)NCc1ccccc1Cl (centres undefined) | inactive
COc1ccccc1Nc1nc(NCCCN(C)C)nc(N)c1[N+](=O)[O-] | inconclusive [inhibitor, single point]
COC(=O)[C@@H](c1ccccc1)N(C)S(=O)(=O)c1cccc(S(=O)(=O)N(C)[C@@H](C(=O)OC)c2ccccc2)c1 | inactive
Cc1ccc(S(=O)(=O)N(CC(=O)NCc2ccncc2)C2CCCCC2)cc1 | inconclusive [inhibitor, single point]
COc1cccc(C(=O)NN2C(=S)N(c3ccccc3)C(=O)C2CC(N)=O)c1 (centres undefined) | inconclusive [inhibitor, partial curve, poor fit]
COc1ccc(-c2coc3c(C)c4oc(=O)c(CC(=O)O)c(C)c4cc23)cc1 | inconclusive [inhibitor, single point]
CC(C)c1ccc(NC(=O)CSC2=Nc3ccccc3C3=NC(CC(=O)NCc4ccc(F)cc4)C(=O)N23)cc1 (centres undefined) | inconclusive [inhibitor, full curve, poor fit]
CCc1ccc(S(=O)(=O)c2nnn3c2nc(NCCNC(C)=O)c2ccccc23)cc1 | inactive
COc1ccc(CCNC(=O)CSc2ncc3c(n2)-c2cc(Cl)ccc2N(Cc2ccccc2)S3(=O)=O)cc1OC | inactive
O=CNc1cc(-c2ccsc2)cn2c(-c3ccccc3)cnc12 | inactive
O=[N+]([O-])c1ccc(NCc2ccncc2)cc1 | inactive
COc1ccc(S(=O)(=O)CC(=O)c2cc3cc(Br)ccc3oc2=O)cc1 | inconclusive [inhibitor, single point]
O=C1c2cc(O)c(O)cc2OC(c2ccc(O)c(O)c2)C1O (centres undefined) | inactive
O=C(Nc1nc(=O)[nH]s1)c1ccccc1 | inactive
COc1cc(-c2noc(CSc3nc(-c4ccccc4)cc(=O)[nH]3)n2)cc(OC)c1OC | inconclusive [inhibitor, single point]
Cc1nn(CC(=O)NC2CCCCC2)c(=O)c2cc3cc(F)ccc3n12 | inactive
Cc1ccc(S(=O)(=O)N2CCC(C(=O)N(C)C3CCS(=O)(=O)C3)CC2)cc1 (centres undefined) | inconclusive [inhibitor, single point]
COc1cc(/C=C2\SC(=O)N(CC(=O)Nc3ccc(C)cc3)C2=O)cc(Cl)c1OCC(=O)O | active: 7.08 µM
CC1(c2ccc([N+](=O)[O-])cc2)NC(=O)N(CC(=O)Nc2ccc(N3CCCCC3)cc2)C1=O (centres undefined) | inactive
O=C1N=c2ccccc2=C1c1c(O)n(-c2cccc(F)c2)[nH]c1=O | inconclusive [inhibitor, partial curve, poor fit]
